# Laboratory results as given in the supplement of paper PMC4967469.
# The IC50 comes from the fitted curve, where viability falls to half of the control; a limit (>, <) means that the fit lies beyond the doses tested. For AUC the same curve is integrated over the 256-fold range of doses and scaled to a fraction; it is 1 without any effect and falls as sensitivity rises. For some assays here: Where the top dose is marked as inferred, it was derived from the fitted curves, not read from the paper.
# Assays:
# Assay in all cases: Viability of human cancer cell lines after 72 h of drug (GDSC screen)
# Salubrinal = compound: O=C(/C=C/c1ccccc1)NC(NC(=S)Nc1cccc2cccnc12)C(Cl)(Cl)Cl [Salubrinal]; conditions: top dose 16 µM; top dose inferred
# Description: (§1)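 Human cancer cell lines in 384-well plates, medium with 10% serum, drug for 72 h over a 256-fold dose range (nine 2-fold or five 4-fold steps up to the top dose). Adherent lines were fixed and stained with the nucleic acid dye Syto60, suspension lines read with resazurin; signal relative to control wells, capped at 0 and 100%. One two-parameter sigmoid per drug and line, fitted in a mixed model over all curves with the slope shared within a line.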
# GW 441756 = compound: Cn1cc(/C=C2\C(=O)Nc3cccnc32)c2ccccc21 [GW 441756]; conditions: top dose 2 µM; top dose inferred
# Description: as §1
# ABT-263 = compound: CC1(C)CCC(c2ccc(Cl)cc2)=C(CN2CCN(c3ccc(C(=O)NS(=O)(=O)c4ccc(N[C@H](CCN5CCOCC5)CSc5ccccc5)c(S(=O)(=O)C(F)(F)F)c4)cc3)CC2)C1 [ABT-263]; conditions: top dose 2 µM; top dose inferred
# Description: as §1
# PIK-93 = compound: CC(=O)Nc1nc(C)c(-c2ccc(Cl)c(S(=O)(=O)NCCO)c2)s1 [PIK-93]; conditions: top dose 20 µM
# Description: as §1
# piperlongumine = compound: COc1cc(/C=C/C(=O)N2CCC=CC2=O)cc(OC)c1OC [piperlongumine]; conditions: top dose 10 µM
# Description: as §1
# GW843682X = compound: COc1cc2ncn(-c3cc(OCc4ccccc4C(F)(F)F)c(C(N)=O)s3)c2cc1OC [GW843682X]; conditions: top dose 0.256 µM
# Description: as §1
Cell Line,AUC (Salubrinal),IC50 (Salubrinal),AUC (GW 441756),IC50 (GW 441756),AUC (ABT-263),IC50 (ABT-263),AUC (PIK-93),IC50 (PIK-93),AUC (piperlongumine),IC50 (piperlongumine),AUC (GW843682X),IC50 (GW843682X)
"SW684 (fibrosarcoma, adherent)",0.98,> 16 µM,0.983,> 2 µM,0.974,> 2 µM,0.983,> 20 µM,0.842,> 10 µM,0.932,> 0.256 µM
"NCI-H524 (small cell lung carcinoma, suspension)",0.976,> 16 µM,0.991,> 2 µM,0.519,0.14 µM,0.897,> 20 µM,0.751,2.98 µM,0.567,0.0239 µM
"NB1 (neuroblastoma, semi-adherent)",0.884,> 16 µM,0.951,> 2 µM,0.964,> 2 µM,0.833,14.8 µM,0.785,4.74 µM,0.615,0.0344 µM
"K5 (thyroid, adherent)",0.887,> 16 µM,0.984,> 2 µM,0.973,> 2 µM,0.803,9.41 µM,0.704,2.28 µM,0.735,–
"EW-1 (Ewing sarcoma, semi-adherent)",0.84,9.79 µM,0.943,> 2 µM,0.937,> 2 µM,0.521,1.42 µM,0.834,5.79 µM,0.439,0.011 µM
"MOLP-8 (myeloma, suspension)",0.862,12.8 µM,0.984,> 2 µM,0.933,> 2 µM,0.268,0.281 µM,0.655,1.65 µM,0.706,0.0595 µM
"JM1 (B-cell lymphoma, suspension)",0.944,> 16 µM,0.173,0.0157 µM,0.635,0.278 µM,0.647,2.99 µM,0.622,1.29 µM,0.485,0.0147 µM
"KNS-81-FD (glioma, adherent)",0.888,> 16 µM,0.961,> 2 µM,0.721,0.673 µM,0.806,14.9 µM,0.731,3.67 µM,0.894,> 0.256 µM
"KU812 (chronic myeloid leukaemia, suspension)",0.904,> 16 µM,0.945,> 2 µM,0.588,0.213 µM,0.031,< 0.0781 µM,0.865,7.61 µM,0.569,0.0243 µM
"HCC2218 (breast, suspension)",0.833,14.2 µM,0.984,> 2 µM,0.98,> 2 µM,0.762,8.92 µM,0.804,6.61 µM,0.868,> 0.256 µM
"NCI-H1869 (lung squamous cell carcinoma, adherent)",0.985,> 16 µM,0.924,> 2 µM,0.956,> 2 µM,0.936,> 20 µM,0.828,7.25 µM,0.929,> 0.256 µM
"A498 (kidney, adherent)",0.887,> 16 µM,0.897,> 2 µM,0.971,> 2 µM,0.965,> 20 µM,0.69,2.81 µM,0.901,> 0.256 µM
"DEL (lymphoid neoplasm, suspension)",0.955,> 16 µM,0.991,> 2 µM,0.993,> 2 µM,0.711,4.22 µM,0.763,2.91 µM,0.546,0.0208 µM
"OVCAR-4 (ovary, adherent)",0.838,> 16 µM,0.938,> 2 µM,0.92,> 2 µM,0.784,13.4 µM,0.777,6.22 µM,0.624,0.0415 µM
"TGW (neuroblastoma, adherent)",0.95,> 16 µM,0.98,> 2 µM,0.407,0.0724 µM,0.844,11.4 µM,0.83,5.09 µM,0.492,0.0153 µM
"NCI-H23 (lung adenocarcinoma, adherent)",0.983,> 16 µM,0.897,> 2 µM,0.948,> 2 µM,0.951,> 20 µM,0.683,2.02 µM,0.963,> 0.256 µM
"NCI-H187 (small cell lung carcinoma, suspension)",0.924,> 16 µM,0.988,> 2 µM,0.352,0.0468 µM,0.734,6.22 µM,0.833,7.23 µM,0.647,0.0424 µM
"PSN1 (pancreas, adherent)",0.937,> 16 µM,0.973,> 2 µM,0.972,> 2 µM,0.708,4.31 µM,0.704,2.1 µM,0.348,0.00655 µM
"SIMA (neuroblastoma, adherent)",0.82,10.8 µM,0.875,> 2 µM,0.967,> 2 µM,0.817,13.1 µM,0.823,6.93 µM,0.923,> 0.256 µM
"MZ1-PC (pancreas, adherent)",0.958,> 16 µM,0.963,> 2 µM,0.975,> 2 µM,0.497,1.22 µM,0.82,7.63 µM,0.401,0.00798 µM
"NCI-H209 (small cell lung carcinoma, suspension)",0.945,> 16 µM,0.969,> 2 µM,0.409,0.069 µM,0.662,3.66 µM,0.872,> 10 µM,0.8,0.134 µM
"NCI-SNU-1 (stomach, suspension)",0.938,> 16 µM,0.985,> 2 µM,0.794,0.953 µM,0.715,5.2 µM,0.837,7.02 µM,0.944,> 0.256 µM
